This is an account of results in PubChem BioAssay AID1347073 (National Center for Advancing Translational Sciences (NCATS), 2019).

The structures appear in SMILES notation. Screen size: about 45,000 compounds; about 200 (0.44%) were called active. About 7% were inconclusive and are not listed. Calls follow the shape of the dose curve; as a rule, active = well fitted activation curve with a large enough effect; inconclusive = small, poorly fitted or top-dose-only effect; inactive = no such curve, though single readings can be large or run the other way. The list shows a part of the results.

The nature of the experiment: qHTS of TDP-43 Inhibitors: NCGC Sytravon Library Screen. Also: 0% is about no effect; nearly all actives have a fitted effect of over 55% in size. Particulars: yeast TDP-43 toxicity rescue, BacTiter-Glo growth, 24 h; series mostly up to 46.1 µM; growth rescue (activation): at the top concentration. Summed up: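 TDP-43-expressing yeast, pregrown in raffinose, seeded at OD600 0.02 in galactose medium with compound for 24 hr at 30 deg C. Growth read by BacTiter-Glo luminescence, so rescue of toxicity appears as activation.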
(In general: In qHTS, concentration-response curves come from the screen itself.)
As for `COc1cc2ccccc2cc1C(=O)Nc1ccc(NC(=O)c2cccs2)cc1`, the “growth rescue (activation)” value is inactive: 5.77%.

Consider `CN1C(=O)Cc2cc(S(=O)(=O)Nc3ccc(N4CCOCC4)cc3)ccc21`, for which the “growth rescue (activation)” value is inactive: 9.85%.

As to `COCCNC(=O)C1(C)CCCN(C(=O)c2cc(OC)c(OC)c(OC)c2)C1` (configuration not stated), the “growth rescue (activation)” value is inactive: 4.9%.

Regarding `Cc1ccc(C(=O)N/C(=C\c2ccco2)C(=O)N2CCCCC2)cc1`, the “growth rescue (activation)” value is inactive: 22%.

With `COc1ccccc1NC(=O)C1CCCN(C(=O)NCc2ccccc2)C1` (configuration not stated), the “growth rescue (activation)” value is inactive: 7.95%.

As for `Cn1c(=O)c2c(ncn2CC(=O)Nc2ccc3c(c2)OCO3)n(C)c1=O`, the “growth rescue (activation)” value is inactive: 15.6%.

Consider `CCC(C)/C(C)=N/NC(=O)c1cn(-c2ccccc2)nc1-c1ccccc1` (configuration not stated), for which the “growth rescue (activation)” value was inactive: -2.96%.

On to `O=C(NC1CCS(=O)(=O)C1)/C(=C/c1ccco1)NC(=O)c1ccccc1` (configuration not stated), for which the “growth rescue (activation)” value is inactive: -16.3%.

Turning to `CCOC(=O)c1c(CC(C)C)csc1NC(=O)COC(=O)c1ccc(O)cc1`, the “growth rescue (activation)” value is inactive: 22.2%.

In the case of `CC(Sc1nnc(-c2ccccc2)c(-c2ccccc2)n1)C(=O)NCC1CCCO1` (configuration not stated), the “growth rescue (activation)” value is inactive: -17.4%.

`O=S(=O)(NCc1cn2ccccc2n1)c1cc(F)ccc1F`: the “growth rescue (activation)” value was inactive: 1.04%.

As to `O=C(CSc1ccccc1)N1CCN(S(=O)(=O)c2ccccc2F)CC1`, the “growth rescue (activation)” value was inactive: 2.63%.

For the compound `COC(=O)c1c(C)[nH]c(C(=O)CC#N)c1C`, the “growth rescue (activation)” value was inactive: -0.973%.

Take `NC(=NC(=O)c1ccccc1)N1CCN(C(c2ccccc2)c2ccccc2)CC1`: the “growth rescue (activation)” value was inactive: -9.97%.

In the case of `Cc1ccc2[nH]c(=O)c3cc(C(=O)NC(C)C)sc3c2c1`, the “growth rescue (activation)” value is inactive: 1.67%.

As to `CCCN1Cc2cccc(C(=O)NC(CC(=O)OCC)c3ccc(OC(C)C)cc3)c2C1=O` (configuration not stated), the “growth rescue (activation)” value is inactive: -3.64%.

Turning to `Clc1ccc(Cl)c(OCCCCNCc2ccccc2)c1`, the “growth rescue (activation)” value was inactive: -29%.

With `COc1cc(/C=C/C(=O)NCCN2CCOCC2)cc(OC)c1OC`, the “growth rescue (activation)” value was inactive: 12.4%.

In the case of `Cc1ccc(C(C(=O)NC2CCCC2)N(Cc2ccc(F)cc2)C(=O)c2snc(C(N)=O)c2N)o1` (configuration not stated), the “growth rescue (activation)” value is inactive: 14.6%.

`COc1ccc(C(=O)NNC(=O)Cc2coc3cc(OC)ccc23)cc1`: the “growth rescue (activation)” value was inactive: -15.8%.

Regarding `CCn1cc(CCC(=O)NC2CCCC2)c2ccccc21`, the “growth rescue (activation)” value is inactive: 3.24%.

For the compound `O=C(COC(=O)/C=C/c1ccc(Cl)cc1)NC(=O)NCc1ccccc1`, the “growth rescue (activation)” value is inactive: -16%.

With `Cc1ccc(C(=O)OCC(=O)Nc2c(C)n(C)n(-c3ccccc3)c2=O)cc1[N+](=O)[O-]`, the “growth rescue (activation)” value is inactive: -2.37%.

In the case of `COCCNC(=S)NCc1cccs1`, the “growth rescue (activation)” value was inactive: 2.97%.

On to `CC(C)c1ccc(NC(=O)C2Cc3c(-c4ccc(Cl)cc4)ccnc3O2)cc1` (configuration not stated), for which the “growth rescue (activation)” value was inactive: 3.79%.

Consider `CCN(CC)c1ccc(/C=c2\sc3nnc(-c4ccccc4Cl)n3c2=O)cc1`, for which the “growth rescue (activation)” value is inactive: 30.9%.

Consider `C#CCNC(=O)c1csc([C@@H]2O[C@H](CO)[C@@H](O)[C@H]2O)n1`, for which the “growth rescue (activation)” value is inactive: -1.08%.

As to `CCC(C)[C@H](NC(=O)OC(C)(C)C)C(=O)N/N=C/c1ccc2cc(OC)ccc2n1` (some centres not stated), the “growth rescue (activation)” value is inactive: 2.34%.

For the compound `CCN1CCN(c2ccc(S(=O)(=O)N(CC)CC)cc2[N+](=O)[O-])CC1`, the “growth rescue (activation)” value was inactive: 10.6%.

For the compound `COCCn1nnnc1CN(Cc1cc2cc(OC)c(OC)cc2[nH]c1=O)C1CCCC1`, the “growth rescue (activation)” value is inactive: 33.7%.

Consider `CC1(C)NC(=O)N(CC(O)COc2ccccc2[N+](=O)[O-])C1=O` (configuration not stated), for which the “growth rescue (activation)” value is inactive: -0.491%.

In the case of `CC(=O)c1cc2c(cc1NC(=O)c1ccco1)OCCO2`, the “growth rescue (activation)” value is inactive: 11.4%.

In the case of `Cc1oc(-c2cccs2)nc1CN1CCN(Cc2ccc(F)c(F)c2)C(CCO)C1` (configuration not stated), the “growth rescue (activation)” value is inactive: 9.5%.

On to `COc1cc(/C=N/NC(=O)C2COc3ccccc3O2)ccc1O` (configuration not stated), for which the “growth rescue (activation)” value was inactive: -4.27%.

Consider `O=C(NC1CCSC1=O)c1cccc(Cl)c1` (configuration not stated), for which the “growth rescue (activation)” value was inactive: -2.51%.

For `Cn1c(CC(=O)Nc2ccccc2)nnc1SCC(=O)Nc1ccc(N2CCOCC2)cc1`, the “growth rescue (activation)” value was inactive: -9.53%.

As to `Cc1ccc(NC(=O)C2CCCN2S(=O)(=O)c2ccc3c(c2)n(C)c(=O)c(=O)n3C)cc1` (configuration not stated), the “growth rescue (activation)” value is inactive: -30.9%.

As to `N#CC1(c2cccc(Br)c2)C(=O)Nc2ccccc21` (configuration not stated), the “growth rescue (activation)” value was inactive: -0.794%.

As to `CCOC(=O)/C(C#N)=C/N=c1ccc(C)cn1C`, the “growth rescue (activation)” value was inactive: 5.9%.

On to `CC(=O)Nc1ccc(NC(=O)CSc2nc3ccccc3c(=O)n2CCCN2CCOCC2)cc1`, for which the “growth rescue (activation)” value is inactive: 2.61%.

As to `COC(c1ccccc1)c1nnc(CCC(=O)N(C)CCc2ccccc2)o1` (configuration not stated), the “growth rescue (activation)” value is inactive: 2.31%.

`Cc1ccc(NC(=O)CSc2ccccn2)cc1S(=O)(=O)N1CCOCC1`: the “growth rescue (activation)” value was inactive: -12.6%.

Take `CCC1=Nc2ccc(Br)cc2C(c2ccccc2)N1CC(=O)OC` (configuration not stated): the “growth rescue (activation)” value was inactive: 23.9%.

On to `Cc1cc(-n2cccn2)ccc1CN1CCN(C2CCCC2)C(CCO)C1` (configuration not stated), for which the “growth rescue (activation)” value is inactive: 0.665%.

Turning to `CC(=O)OCCN1C(=O)c2ccc(-c3nc4ccccc4c(=O)o3)cc2C1=O`, the “growth rescue (activation)” value is inactive: 21.9%.

For `COc1ccc(C)cc1NC(=O)CN(c1ccccc1F)S(C)(=O)=O`, the “growth rescue (activation)” value was inactive: 7.21%.

For `COc1ccc(N(C(=O)CNC(=O)c2ccco2)C(C(=O)NC2CCCCC2)c2ccncc2)cc1` (configuration not stated), the “growth rescue (activation)” value is inactive: -0.562%.

`O=C(NCc1ccc2c(c1)OCO2)C1CCC(CNS(=O)(=O)c2ccccc2)CC1` (configuration not stated): the “growth rescue (activation)” value is inactive: 2.45%.

Take `COC(=O)C1(C)NC(c2ccccc2C)C2C(=O)N(c3ccc(F)cc3)C(=O)C21` (configuration not stated): the “growth rescue (activation)” value was inactive: 1.33%.

For the compound `CC1=C(C(=O)N2CCN(c3cccc(C(F)(F)F)c3)CC2)C2(CCCCC2)OC1=O`, the “growth rescue (activation)” value was inactive: -5.08%.

`CC(C)C(=O)Nc1ccc(N2CCN(c3ccc(F)cc3)CC2)cc1`: the “growth rescue (activation)” value is inactive: 9.36%.

As to `CCOC(=O)c1c(C)[nH]c(N=Nc2cc(C(=O)O)cc(C(=O)O)c2)c1C`, the “growth rescue (activation)” value was inactive: 3.34%.

On to `Nc1nonc1C(=O)NCCNS(=O)(=O)c1ccc(F)cc1`, for which the “growth rescue (activation)” value is inactive: 19.7%.

Take `COc1ccc(-n2ncc3c(=O)n(CC(=O)Nc4ccc5c(c4)OCCO5)cnc32)cc1`: the “growth rescue (activation)” value is inactive: -7.73%.

For `CC(C)C(NC(=O)C1CCC(C(C)(C)C)CC1)C(=O)NCCCN1CCCCC1` (configuration not stated), the “growth rescue (activation)” value is inactive: 7.02%.

In the case of `O=C1CCC(=O)N1c1ccc(S(=O)(=O)Nc2ccc(Br)cc2)cc1`, the “growth rescue (activation)” value was inactive: -9.35%.

On to `COCCn1c(COc2cccc(OC)c2)nnc1SCC(=O)NC1CCCCC1`, for which the “growth rescue (activation)” value was inactive: -13.2%.

With `Cc1cc(C)cc(N(CC(=O)N/N=C/c2ccncc2)S(=O)(=O)c2ccccc2)c1`, the “growth rescue (activation)” value is inactive: 17.4%.

On to `Nc1n[nH]c(CCCO)n1`, for which the “growth rescue (activation)” value was inactive: 21.5%.

As to `COc1cc2c(cc1OC)C(CC(=O)O)N(C(=O)CC1CCCC1)CC2` (configuration not stated), the “growth rescue (activation)” value is inactive: 5.85%.

Regarding `CS(=O)(=O)CC(=O)Nc1ccc2nc3n(c(=O)c2c1)CCCCC3`, the “growth rescue (activation)” value was inactive: -12.6%.

With `CN(C)c1ccc(/C=C2\SC(=O)N(CC(O)Cn3c4ccccc4c4ccccc43)C2=O)cc1` (configuration not stated), the “growth rescue (activation)” value is inactive: -7.68%.

As for `COC(=O)CCN(C(=O)c1cccc([N+](=O)[O-])c1)c1ccccn1`, the “growth rescue (activation)” value was inactive: 5.55%.

Turning to `CCNCc1nc2cc(Cl)ccc2c(=O)[nH]1`, the “growth rescue (activation)” value is inactive: -18.1%.

`Cc1ccc(Oc2ccc(NC(=O)CSc3n[nH]c(N)n3)cc2)cc1`: the “growth rescue (activation)” value is inactive: -0.398%.

Turning to `Oc1[nH]c2ccccc2c1C1=NCCCCC1`, the “growth rescue (activation)” value is inactive: 36.2%.

`COc1ccc(OCCNc2cc(N3CCCCC3)ccc2[N+](=O)[O-])cc1`: the “growth rescue (activation)” value was inactive: 31.1%.
